Source: patent publication US20200207868A1 (UNIVERSITY OF SASKATCHEWAN, published 2020)

B1: anti-HER3 scFv-Fc (Fc fusion)
chain: SDIQMTQSPSSLSASVGDRVTITCRASQGISNYLAWYQQKPGKAPKLLIYAASSLQSGVPSRFSGSRSGTDFTLTISSLQPEDFATYYCQQYGWLPLTFGQGTKVEIKGGGGSGGGGSGGGGSEISEVQLVESGGGLVQPGGSLRLSCAASGFTFSSYGMHWVRQAPGKGLEWVAVISYDGSNKYYADSVKGRFTISRDNSKNTLYLQMNSLRAEDTAVYYCARTDPYSLGGYYFDYWGQGTLVTVSS[human IgG1 Fc not given here]
B2: anti-HER3 scFv-Fc labeled with IRDye800CW (Fc fusion)
chain: B1 chain
notes: also called IRDye800CW-labeled scFv-Fc

Columns and labels:
[1] = target: T1, recombinant human HER3-Fc chimera protein (R&D Systems) (human, UniProt P21860 fragment); assay: BLI (Octet Red), antibody on AR2G sensor, HER3-Fc 10-263 nM, 1:1 fit
T1 construct: extracellular domain; Bought from R&D Systems; also called recombinant human HER3 extracellular domain; recombinant HER3; not shown: Fc part of the purchased chimera
Method: Binding kinetics were measured using an Octet Red instrument (ForteBio, Menlo Park, Calif.), following the manufacturer's protocol. Binding assays were performed in 96-well microtiter plates at 30° C. with sample plate orbital motion agitation at 1000 rpm. All washes, dilutions, and measurements were performed in phosphate buffered saline (PBS), pH 7.4. The IgG and antibody fragments were immobilized on amine-reactive second generation (AR2G) sensors using the manufacturer's protocol at pH 5 followed by quenching with 1 M ethanolamine, pH 8.5. […] Binding was monitored by placing sensors into wells for 5 min, followed by dissociation in PBS for 10 min. KD, kON, and kOFF were determined with ForteBio Data Analysis software v7.1.0.33 through locally fitting the processed data using a 1:1 binding model.

[2] = target: HER3 (as used in the biolayer interferometry of Example 2) (UniProt P21860 fragment, limits assumed); assay: BLI
[3] = target: T1, recombinant human HER3-Fc chimera …; assay: BLI, IRDye800CW-labeled antibody

Row | Binder | Kd [1] [nM] | koff [1] [s⁻¹] | kon [1] [M⁻¹ s⁻¹] | Kd [2] [nM] | koff [2] [s⁻¹] | kon [2] [M⁻¹ s⁻¹] | Kd [3] [nM]
1 | B1 | 0.6 | 5e-05 | 78000 | 0.57 | 4.6e-05 | 77800 | 
2 | B2 |  |  |  |  |  |  | 0.9
